# The supplement of paper PMC8728848
# The list shows a part of the results.
# B1: B725 (Bifidobacterium sp) (protein)
# chain: MNNTTRAVIATAAIGALLIPLAGCGNTTTSSGKTELTVWSWDASIDRAAKSFMKANPDITVKVSNVGSTEETYTALNNAAQAGSGLPDVTLIEYLAIPQFVHSDTLMDLSKVYNTAKLKDTFTPGTWNSVNINGGLYAMPADSGPMAYFYDKDVFDKAGISEPPTTWDEFYEDAKKIRATGSYITSDSGDAGLFNAMMWAMGGHAYKLNDDKLTINIAKDKGAQRFMDLWQKMRDEDLIDVHTKTWTDDWMKSLGDGSIASLISGAWMANNLLQGVPQATGKFRVALLPTIDGTPINGEYGGSGLAITKKIPDGKLDAAKKFVEYVTTNDEGIDARVSNGSFPATTKTLNQKDFLAKTTLRNTDGSDNEFFGGQKYNEIFSQAAKDVTGKWEFLPFEPYARSVYNDNMGSFFAGKTSFRTAADNWQKALKDYAKDQGFTVQ
# Columns and labels:
# Assay in all cases: glycan array binding signal (z-score within array); higher = stronger binding
# Conditions in all cases: glycan notation: IUPAC condensed, linker removed
# [1] = target: Fuc(a1-2)[Gal(a1-4)]Gal(b1-4)GlcNAc
# Summary of the method: (§1)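 The binding signal is a Z-score computed within each array and averaged over linkers. Arrays of the same protein sequence at different concentrations or buffers were also averaged together. Data originate from 3228 arrays in the Consortium for Functional Glycomics database, kept only where the protein sequence was available.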
# [2] = target: Fuc(a1-2)[GalNAc(a1-3)]Gal
# Summary of the method: as §1
# [3] = target: Fuc(a1-2)[GalNAc(a1-3)]Gal(b1-3)GalNAc(a1-3)[Fuc(a1-2)]Gal(b1-4)GlcNAc
# Summary of the method: as §1
# [4] = target: Fuc(a1-2)[GalNAc(a1-3)]Gal(b1-3)GalNAc(b1-3)Gal(a1-4)Gal(b1-4)Glc
# Summary of the method: as §1
# [5] = target: Fuc(a1-2)[GalNAc(a1-3)]Gal(b1-3)GlcNAc
# Summary of the method: as §1
# [6] = target: Fuc(a1-2)[GalNAc(a1-3)]Gal(b1-3)GlcNAc(b1-2)Man(a1-3)[Fuc(a1-2)[GalNAc(a1-3)]Gal(b1-3)GlcNAc(b1-2)Man(a1-6)]Man(b1-4)GlcNAc(b1-4)GlcNAc
# Summary of the method: as §1
# [7] = target: Fuc(a1-2)[GalNAc(a1-3)]Gal(b1-3)GlcNAc(b1-2)Man(a1-3)[Fuc(a1-2)[GalNAc(a1-3)]Gal(b1-3)GlcNAc(b1-2)Man(a1-6)]Man(b1-4)GlcNAc(b1-4)[Fuc(a1-6)]GlcNAc
# Summary of the method: as §1
# [8] = target: Fuc(a1-2)[GalNAc(a1-3)]Gal(b1-3)GlcNAc(b1-3)GalNAc
# Summary of the method: as §1
# [9] = target: Fuc(a1-2)[GalNAc(a1-3)]Gal(b1-3)GlcNAc(b1-6)GalNAc
# Summary of the method: as §1
# [10] = target: Fuc(a1-2)[GalNAc(a1-3)]Gal(b1-4)Glc
# Summary of the method: as §1
# [11] = target: Fuc(a1-2)[GalNAc(a1-3)]Gal(b1-4)GlcNAc
# Summary of the method: as §1
# [12] = target: Fuc(a1-2)[GalNAc(a1-3)]Gal(b1-4)GlcNAc(b1-2)Man
# Summary of the method: as §1
# [13] = target: Fuc(a1-2)[GalNAc(a1-3)]Gal(b1-4)GlcNAc(b1-2)Man(a1-3)[Fuc(a1-2)[GalNAc(a1-3)]Gal(b1-4)GlcNAc(b1-2)Man(a1-6)]Man(b1-4)GlcNAc(b1-4)GlcNAc
# Summary of the method: as §1
# [14] = target: Fuc(a1-2)[GalNAc(a1-3)]Gal(b1-4)GlcNAc(b1-2)Man(a1-3)[Fuc(a1-2)[GalNAc(a1-3)]Gal(b1-4)GlcNAc(b1-2)Man(a1-6)]Man(b1-4)GlcNAc(b1-4)[Fuc(a1-6)]GlcNAc
# Summary of the method: as §1
# [15] = target: Fuc(a1-2)[GalNAc(a1-3)]Gal(b1-4)GlcNAc(b1-3)Gal(b1-4)GlcNAc
# Summary of the method: as §1
# [16] = target: Fuc(a1-2)[GalNAc(a1-3)]Gal(b1-4)GlcNAc(b1-3)Gal(b1-4)GlcNAc(b1-3)Gal(b1-4)GlcNAc
# Summary of the method: as §1
# [17] = target: Fuc(a1-2)[GalNAc(a1-3)]Gal(b1-4)GlcNAc(b1-3)GalNAc
# Summary of the method: as §1
# [18] = target: Fuc(a1-2)[GalNAc(a1-3)]Gal(b1-4)GlcNAc(b1-3)[Fuc(a1-2)[GalNAc(a1-3)]Gal(b1-4)GlcNAc(b1-6)]GalNAc
# Summary of the method: as §1
# [19] = target: Fuc(a1-2)[GalNAc(a1-3)]Gal(b1-4)GlcNAc(b1-6)GalNAc
# Summary of the method: as §1
# [20] = target: Fuc(a1-2)[GalNAc(a1-3)]Gal(b1-4)[Fuc(a1-3)]GlcNAc
# Summary of the method: as §1
# [21] = target: Fuc(a1-2)[GalNAc(a1-3)]Gal(b1-4)[Fuc(a1-3)]GlcNAc(b1-3)GalNAc
# Summary of the method: as §1
# [22] = target: Fuc(a1-2)[GalNAc(a1-4)]Gal(b1-4)GlcNAc
# Summary of the method: as §1
# [23] = target: Fuc(a1-2)[GalNAc(b1-3)]Gal
# Summary of the method: as §1
# Fuc(a1-3)GlcNAc = target: Fuc(a1-3)GlcNAc
# Summary of the method: as §1
# [24] = target: Fuc(a1-3)[Gal(b1-4)]Glc6S
# Summary of the method: as §1
# [25] = target: Fuc(a1-3)[Gal(b1-4)]GlcNAc
# Summary of the method: as §1
# [26] = target: Fuc(a1-3)[Gal(b1-4)]GlcNAc(b1-2)Man
# Summary of the method: as §1
# [27] = target: Fuc(a1-3)[Gal(b1-4)]GlcNAc(b1-2)Man(a1-3)[Fuc(a1-3)[Gal(b1-4)]GlcNAc(b1-2)Man(a1-6)]Man(b1-4)GlcNAc(b1-4)GlcNAc
# Summary of the method: as §1
# [28] = target: Fuc(a1-3)[Gal(b1-4)]GlcNAc(b1-2)Man(a1-3)[Fuc(a1-3)[Gal(b1-4)]GlcNAc(b1-2)Man(a1-6)]Man(b1-4)GlcNAc(b1-4)[Fuc(a1-6)]GlcNAc
# Summary of the method: as §1
# [29] = target: Fuc(a1-3)[Gal(b1-4)]GlcNAc(b1-3)Gal(b1-3)[Fuc(a1-4)]GlcNAc
# Summary of the method: as §1
# [30] = target: Fuc(a1-3)[Gal(b1-4)]GlcNAc(b1-3)Gal(b1-4)[Fuc(a1-3)]GlcNAc
# Summary of the method: as §1
# [31] = target: Fuc(a1-3)[Gal(b1-4)]GlcNAc(b1-3)Gal(b1-4)[Fuc(a1-3)]GlcNAc(b1-3)Gal(b1-4)[Fuc(a1-3)]GlcNAc
# Summary of the method: as §1
# [32] = target: Fuc(a1-3)[Gal(b1-4)]GlcNAc(b1-3)GalNAc
# Summary of the method: as §1
# [33] = target: Fuc(a1-3)[Gal(b1-4)]GlcNAc(b1-6)GalNAc
# Summary of the method: as §1
# [34] = target: Fuc(a1-3)[Gal(b1-4)]GlcNAc(b1-6)[Gal(b1-3)GlcNAc(b1-3)]Gal(b1-4)Glc
# Summary of the method: as §1
# [35] = target: Fuc(a1-3)[Gal(b1-4)]GlcNAc6S
# Summary of the method: as §1
# [36] = target: Fuc(a1-3)[Gal3S(b1-4)]Glc
# Summary of the method: as §1
# [37] = target: Fuc(a1-3)[Gal3S(b1-4)]GlcNAc
# Summary of the method: as §1
binder,measurement,setting,value
B1,glycan array binding signal (z-score),[1],-0.23
same,glycan array binding signal (z-score),[2],-0.228
same,glycan array binding signal (z-score),[3],-0.228
same,glycan array binding signal (z-score),[4],-0.224
same,glycan array binding signal (z-score),[5],-0.221
same,glycan array binding signal (z-score),[6],-0.209
same,glycan array binding signal (z-score),[7],-0.205
same,glycan array binding signal (z-score),[8],-0.213
same,glycan array binding signal (z-score),[9],-0.224
same,glycan array binding signal (z-score),[10],-0.222
same,glycan array binding signal (z-score),[11],-0.229
same,glycan array binding signal (z-score),[12],-0.219
same,glycan array binding signal (z-score),[13],-0.195
same,glycan array binding signal (z-score),[14],-0.222
same,glycan array binding signal (z-score),[15],-0.218
same,glycan array binding signal (z-score),[16],2.04
same,glycan array binding signal (z-score),[17],-0.24
same,glycan array binding signal (z-score),[18],-0.22
same,glycan array binding signal (z-score),[19],-0.233
same,glycan array binding signal (z-score),[20],-0.217
same,glycan array binding signal (z-score),[21],-0.209
same,glycan array binding signal (z-score),[22],-0.229
same,glycan array binding signal (z-score),[23],-0.229
same,glycan array binding signal (z-score),Fuc(a1-3)GlcNAc,-0.227
same,glycan array binding signal (z-score),[24],-0.183
same,glycan array binding signal (z-score),[25],-0.192
same,glycan array binding signal (z-score),[26],-0.21
same,glycan array binding signal (z-score),[27],-0.228
same,glycan array binding signal (z-score),[28],-0.197
same,glycan array binding signal (z-score),[29],-0.218
same,glycan array binding signal (z-score),[30],-0.099
same,glycan array binding signal (z-score),[31],-0.21
same,glycan array binding signal (z-score),[32],-0.216
same,glycan array binding signal (z-score),[33],-0.187
same,glycan array binding signal (z-score),[34],-0.174
same,glycan array binding signal (z-score),[35],-0.21
same,glycan array binding signal (z-score),[36],-0.235
same,glycan array binding signal (z-score),[37],-0.223
